Experimental data taken from the supplement of paper PMC10441789.
The other results are listed elsewhere or left out. Antibody binding of pooled human sera (four to six donors per pool; dilution not stated) to peptides of the Trypanosoma cruzi antigen TSSA on microarrays. Quantile-normalised fluorescence in arbitrary units, mean of duplicate arrays; higher = more binding. No active / inactive call. The uninfected pools are read here as the healthy donors of the same country. The strongest signals lie near the top of the scale (about 60,000).

System: pooled sera of chronic Chagas disease patients, Argentina
Test: antibody binding signal (normalised fluorescence) (arbitrary fluorescence units); higher = stronger serum antibody binding to peptide
Description: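 Microarray of 15-residue peptides over residues 30-55 of Trypanosoma cruzi TSSAII, each with 1 to 10 substitutions at naturally variable positions, probed with one serum pool per country.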

Sequence | antibody binding signal
PSGTEKKPATGGAPS | 22700
GTENKTATGEAPSPS | 26700
GKDKKTAAGGTPSQS | 295
KKPAAGGAPSQSGAS | 182
GKENKTATGGAPSPS | 2730
SGKDKKPATGGTPSQ | 1100
PSGTDKKTATGGAPS | 4160
PPSGKEKKAATGGTP | 1630
NKTAAGETPSPSGAS | 277
GTDKKAAAGGAPSQS | 243
SGKDNKPATGETPSP | 37500
GKEKKPATGGTPSQP | 2400
PSGTEKKTATGGAPS | 10200
PPSGTDNKAAAGGAP | 48100
TSSTPPSGTDNKAAA | 35100
PPSGKEKKAATGETP | 3550
GTEKKPATGGTPSPS | 1650
TISTPPSGTENKPAT | 46000
GTDKKTAAGGTPSPP | 484
EKKAATGGTPSPSGA | 895

Sequence | antibody binding signal
SGKEKKPAAGGAPSP | 7730
EKKPAAGGAPSQSGA | 304
NKAATGETPSQSGAS | 3030
TDKKPATGGAPSPSG | 1250
PSGTEKKPAAGGAPS | 22000
PPSGKDNKPATGETP | 36300
SGTDNKTATGETPSP | 810
KENKAATGEAPSPSG | 24400
ISTPPSGKEKKPATG | 19000
ENKPAAGGAPSQPGA | 544
TPPSGTDNKAAAGEA | 44600
GTDNKAAAGEAPSQP | 7040
TDNKTAAGGAPSQSG | 294
KKAAAGGAPSPPGAS | 167
PPSGTDNKTATGGTP | 24000
SGKENKTATGGTPSP | 3210
DNKPAAGGAPSPPGA | 178
GKENKTAAGGAPSPP | 828
GKENKTATGETPSPP | 9800
TPPSGTDKKAAAGEA | 14300
